Assay results published in publication PMC6919601, “Identification of Plasmodium dipeptidyl aminopeptidase allosteric inhibitors by high throughput screening” (PLoS ONE, 2019).
About 230 (0.21%) of roughly 110,000 compounds showed an effect of 50% or more. The list shows a part of the results.

target: DPAP1 (Plasmodium falciparum, UniProt Q8IIJ9); assay: primary screen, percent inhibition; read by cleavage of a fluorogenic dipeptide substrate; higher = more effect of the substance; set-up: species or system P. falciparum D10 trophozoite lysates; single well
Sequence (Q8IIJ9 whole entry, looked up): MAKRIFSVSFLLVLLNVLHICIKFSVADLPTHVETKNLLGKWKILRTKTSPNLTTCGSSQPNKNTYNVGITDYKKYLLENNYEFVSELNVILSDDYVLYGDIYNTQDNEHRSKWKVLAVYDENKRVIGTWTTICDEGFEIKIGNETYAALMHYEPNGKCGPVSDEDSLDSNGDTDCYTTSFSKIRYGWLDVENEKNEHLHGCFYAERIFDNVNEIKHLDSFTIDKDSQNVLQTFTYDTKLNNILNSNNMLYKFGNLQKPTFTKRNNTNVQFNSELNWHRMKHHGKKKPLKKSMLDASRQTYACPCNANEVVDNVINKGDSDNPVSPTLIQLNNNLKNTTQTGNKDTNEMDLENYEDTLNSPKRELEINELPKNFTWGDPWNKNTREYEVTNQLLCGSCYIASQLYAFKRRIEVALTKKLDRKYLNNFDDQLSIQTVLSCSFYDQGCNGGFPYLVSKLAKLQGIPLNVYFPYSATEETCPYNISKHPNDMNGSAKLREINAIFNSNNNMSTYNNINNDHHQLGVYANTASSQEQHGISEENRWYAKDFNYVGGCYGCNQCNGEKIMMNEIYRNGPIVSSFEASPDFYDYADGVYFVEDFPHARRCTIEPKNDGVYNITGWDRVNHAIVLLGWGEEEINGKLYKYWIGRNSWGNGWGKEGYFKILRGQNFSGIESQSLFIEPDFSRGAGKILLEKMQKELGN
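Note: 30 min substrate incubation versus DMSO and 10 µM JCP410 controls.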

CCCCNc1sc(S(=O)(=O)CC)nc1S(=O)(=O)c1ccc(Cl)cc1 was tested. Which “% Inhibition @ 10 uM” value did it give?
Its value is 4.33%.

O=C(Cn1ncc2c3ccccc3n(Cc3ccccc3)c2c1=O)NCCCN1CCCC1=O was tested. Which “% Inhibition @ 10 uM” value did it give?
The value was 7.91%.

Which “% Inhibition @ 10 uM” value does the source give for CC(=O)N1CCN(c2cccc(C)c2C)CC1 here?
The value was 4.83%.

How did the “% Inhibition @ 10 uM” value turn out when Cc1cccc(OCCOCCN2CCNCC2)c1C was run?
The value was -3.69%.

With CCOc1ccc(NC(=O)CSc2nc(C(C)C)ccc2C#N)cc1 as the compound, how does the “% Inhibition @ 10 uM” value read?
Its value is -5.34%.

C/C(=C1\C(=O)N(c2nc3ccccc3s2)N=C1C(F)(F)F)N1CCN(CCO)CC1 was tested. Which “% Inhibition @ 10 uM” value did it give?
The value was -2.07%.

With CCn1c(C)c(C2=CCN(S(=O)(=O)c3cccc4nsnc34)CC2)c2ccccc21 as the compound, how does the “% Inhibition @ 10 uM” value read?
The value was -1.08%.

Which “% Inhibition @ 10 uM” value does the source give for CC1(C)N=C(N)N=C(N)N1c1ccc(Oc2ccc(Cl)cc2)c(Cl)c1 here?
The value was -1.42%.

With CC1CCC(NC(=O)C(C)n2ncn3cccc3c2=O)CC1 (stereo not shown) as the compound, how does the “% Inhibition @ 10 uM” value read?
Its value is -2.78%.

How did the “% Inhibition @ 10 uM” value turn out when COc1ccc(OCc2ccc(C(=O)O)cc2)cc1 was run?
Its value is -2.84%.

Which “% Inhibition @ 10 uM” value does the source give for CC(C)C[C@H](N)B1O[C@@H]2C[C@@H]3C[C@@H](C3(C)C)[C@]2(C)O1 here?
The value was -3.14%.

How did the “% Inhibition @ 10 uM” value turn out when Cc1nn(C)c(C)c1S(=O)(=O)N1CCC(C(=O)NCC2COc3ccccc3O2)CC1 (stereo not shown) was run?
Its value is 2.39%.

For CC(C)c1ccccc1OCC(=O)Nc1ccc(S(=O)(=O)N2CCCCCC2)cc1, which “% Inhibition @ 10 uM” value is on record?
The value was 0.913%.

With CCC1CCCCN1CCCNC(=O)C1CC(=O)N(CCc2ccccc2)C1 (stereo not shown) as the compound, how does the “% Inhibition @ 10 uM” value read?
Its value is -0.267%.

How did the “% Inhibition @ 10 uM” value turn out when COc1cc(NC(=O)c2cccc(Br)c2)c(OC)cc1Cl was run?
Its value is 0.317%.

Which “% Inhibition @ 10 uM” value does the source give for Cc1cc(C)cc(NC(=O)CN2C(=O)c3ccccc3S2(=O)=O)c1 here?
Its value is -4.39%.

For O=C(C1CCCN(c2ncnc3c2nc2n3CCCCC2)C1)N1CCC(Cc2ccccc2)CC1 (stereo not shown), which “% Inhibition @ 10 uM” value is on record?
The value was 11%.

CCC(CC)c1nc(C#N)c(NC(C)c2ccccc2)o1 (stereo not shown) was tested. Which “% Inhibition @ 10 uM” value did it give?
Its value is -11.7%.

How did the “% Inhibition @ 10 uM” value turn out when OC1CCCN(Cc2ccc(-c3ccccc3)cc2)C1 (stereo not shown) was run?
The value was 5.55%.

For COc1ccc(Cl)cc1-c1ccc(/C=C2\SC(=N)N(c3nonc3NC(C)=O)C2=O)o1, which “% Inhibition @ 10 uM” value is on record?
The value was -3.04%.

Which “% Inhibition @ 10 uM” value does the source give for O=C(/C=C/c1ccc(Cl)cc1Cl)N1CCN(c2ccc(F)cc2)CC1 here?
The value was -2.2%.

How did the “% Inhibition @ 10 uM” value turn out when O=C(NCC1CCCO1)C1CC(=O)N(CCc2ccccc2)C1 (stereo not shown) was run?
Its value is -0.0542%.

How did the “% Inhibition @ 10 uM” value turn out when CN(C)CCCNc1oc(-c2ccc(F)cc2)nc1C#N was run?
The value was 0.315%.

For Cc1cccc2c1-c1sc(C(=O)NCCN(C)C)cc1CO2, which “% Inhibition @ 10 uM” value is on record?
The value was -3.3%.

Which “% Inhibition @ 10 uM” value does the source give for COc1nc(OC)nc(Oc2ccccc2)n1 here?
Its value is -3.79%.

How did the “% Inhibition @ 10 uM” value turn out when O=C(C1=NNCC1c1ccccc1Cl)c1ccccn1 (stereo not shown) was run?
The value was 2.65%.

Cn1c2ccccc2n2cc(C(C)(C)C)nc12 was tested. Which “% Inhibition @ 10 uM” value did it give?
The value was 1.43%.

How did the “% Inhibition @ 10 uM” value turn out when O=C(c1sc2cc(Cl)ccc2c1Cl)N1CCNCC1 was run?
The value was 3.19%.

With O=C(Nc1ccc(-c2cn3ccsc3n2)cc1)c1cccc(Cl)c1 as the compound, how does the “% Inhibition @ 10 uM” value read?
Its value is 6.24%.

For CCOC(=O)N1CCN(CCc2ccccc2)CC1, which “% Inhibition @ 10 uM” value is on record?
Its value is -5.11%.

Which “% Inhibition @ 10 uM” value does the source give for Cc1ccc(CNC(=O)c2sc3ccc(S(=O)(=O)N4CCCCC4)cc3c2N)cc1 here?
The value was 9.45%.

How did the “% Inhibition @ 10 uM” value turn out when COc1ccc(-c2cc(C(F)(F)F)n3ncc(C(=O)NCc4cccnc4)c3n2)cc1 was run?
The value was -4.29%.

How did the “% Inhibition @ 10 uM” value turn out when CCOC(=O)c1ccc(NC(=O)CCC(=O)O)cc1 was run?
The value was 4.54%.

How did the “% Inhibition @ 10 uM” value turn out when CCN(CC)CCn1c(N)nc2ccccc21 was run?
The value was 0.827%.

Which “% Inhibition @ 10 uM” value does the source give for CCn1cc(CCCC(=O)N2CCN(Cc3ccccc3)CC2)c2ccccc21 here?
The value was -3.18%.

For CC(C)(C)C1CCc2c(sc(NC(=O)c3ccc(F)cc3)c2C(N)=O)C1 (stereo not shown), which “% Inhibition @ 10 uM” value is on record?
The value was 3.53%.

How did the “% Inhibition @ 10 uM” value turn out when CCN(CC)CCCNC(=O)Cn1ncc2c3ccccc3n(C)c2c1=O was run?
Its value is -3.67%.

How did the “% Inhibition @ 10 uM” value turn out when CCN1CCC2(CC1)OC(=O)C(C)=C2C(=O)N1CCCC1 was run?
Its value is -1.58%.

Cc1ccc(C(=O)N/C(=C/c2ccco2)C(=O)Nc2ccc(Cl)cc2)cc1 was tested. Which “% Inhibition @ 10 uM” value did it give?
The value was -6.62%.

For CC1CN(c2nc(-c3ccc(Cl)cc3Cl)nc3ccccc23)CC(C)O1 (stereo not shown), which “% Inhibition @ 10 uM” value is on record?
Its value is 0.487%.

COCCCNCCn1cnc2c(N)ncnc21 was tested. Which “% Inhibition @ 10 uM” value did it give?
The value was -1.72%.

For COc1ccc(-c2c(C)sc(NC(=O)c3ccnn3C)c2C#N)cc1, which “% Inhibition @ 10 uM” value is on record?
The value was -4%.

For Cc1c2cnn(CC(=O)NCCCN3CCCC3=O)c(=O)c2c(C)n1Cc1ccc(F)cc1, which “% Inhibition @ 10 uM” value is on record?
The value was -2.17%.

How did the “% Inhibition @ 10 uM” value turn out when CCS(=O)(=O)N1CCC2(CC1)OC(=O)C(C)=C2C(=O)NC(C)CCc1ccccc1 (stereo not shown) was run?
The value was -0.518%.

For Cc1c(Br)c([N+](=O)[O-])nn1CC(=O)N1CCN(C)CC1, which “% Inhibition @ 10 uM” value is on record?
Its value is 5.03%.

For CC1(C)Cc2c(ccc3ccccc23)C(Cc2ccccc2)N1 (stereo not shown), which “% Inhibition @ 10 uM” value is on record?
Its value is -1.26%.

Which “% Inhibition @ 10 uM” value does the source give for COc1ccc(NC(=O)/C(=C/c2ccccc2)NC(C)=O)cc1 here?
The value was 4.03%.

How did the “% Inhibition @ 10 uM” value turn out when CCOc1ccccc1CNC(=O)c1ccc(-c2nc(CS(=O)(=O)c3ccccc3)c(C)o2)cc1 was run?
Its value is -7.09%.

For Cc1ccccc1NC1=C(Cl)C(=O)N(c2ccccc2)C1=O, which “% Inhibition @ 10 uM” value is on record?
The value was -4.48%.

Which “% Inhibition @ 10 uM” value does the source give for Cc1cccc2sc(N(CCN(C)C)C(=O)C3CCCCC3)nc12 here?
Its value is -0.12%.

Which “% Inhibition @ 10 uM” value does the source give for COc1ccc(-c2noc(CC(=O)N3CC(C)CC(C)C3)n2)cc1 (stereo not shown) here?
The value was 2.49%.

Which “% Inhibition @ 10 uM” value does the source give for CC(C)(C)NS(=O)(=O)c1ccc(NC(=O)c2ccc(Cl)cc2Cl)cc1 here?
Its value is -5.69%.

With C/N=C/C1=C(O)C(C)(C)Oc2ccc3ccc(=O)oc3c21 as the compound, how does the “% Inhibition @ 10 uM” value read?
Its value is 2.1%.

Which “% Inhibition @ 10 uM” value does the source give for CCOc1ccc(NC2=NC(=O)C(CC(=O)Nc3cc(C)ccc3C)S2)cc1 (stereo not shown) here?
The value was 1.62%.

How did the “% Inhibition @ 10 uM” value turn out when COc1ccc(C2CC(SCC(=O)c3ccccc3)=Nc3ncnn32)cc1 (stereo not shown) was run?
Its value is 9.54%.

COc1ccc2c(=O)c(-c3ccccc3OC)c(C(F)(F)F)oc2c1 was tested. Which “% Inhibition @ 10 uM” value did it give?
The value was 3.25%.

O=C(CN1CC(=O)N2CCCC2C1=O)NCCc1ccc(Cl)cc1 (stereo not shown) was tested. Which “% Inhibition @ 10 uM” value did it give?
Its value is 0.372%.

With COc1ccc(C2Oc3ccccc3C3CC(c4cc(C)ccc4O)=NN32)c(OC)c1 (stereo not shown) as the compound, how does the “% Inhibition @ 10 uM” value read?
Its value is -3.48%.

Which “% Inhibition @ 10 uM” value does the source give for CC1CCCC(C)N1CCNC(=O)CN1N=C(c2ccccc2)CCC1=O (stereo not shown) here?
The value was 5.35%.

With O=C(NCc1ccco1)c1ccc(CSc2nc3ccncc3n2Cc2ccc(F)cc2)cc1 as the compound, how does the “% Inhibition @ 10 uM” value read?
The value was 5.73%.

For CCOc1ccc(-c2csc(NC(=O)c3cccnc3)n2)cc1, which “% Inhibition @ 10 uM” value is on record?
Its value is 25.5%.

For CCc1[nH]nc2c1C(c1ccc(OC(F)F)cc1)C(C#N)=C(N)O2 (stereo not shown), which “% Inhibition @ 10 uM” value is on record?
Its value is -4.48%.

With O=S(=O)(Nc1nc2ccccc2s1)c1ccc(F)cc1 as the compound, how does the “% Inhibition @ 10 uM” value read?
Its value is 4.3%.

For Cc1ccc2c3c1C(=O)C(=O)N3C(C)(C)CC2(C)c1ccccc1 (stereo not shown), which “% Inhibition @ 10 uM” value is on record?
The value was 0.231%.
